{
  "source": "PubChem BioAssay AID1347073",
  "about": "(National Center for Advancing Translational Sciences (NCATS), 2019)",
  "note": "About 200 (0.44%) of roughly 45,000 compounds were called active. Inconclusive results (about 7%) are left out. The call rests on the fitted dose curve; in most records, active means well fitted activation curve with a large enough effect; inconclusive means small, poorly fitted or top-dose-only effect; inactive means no such curve, though single readings can be large or run the other way. Some of the results follow.",
  "data": [
    {"experiment": "qHTS of TDP-43 Inhibitors: NCGC Sytravon Library Screen; further: 0% is about no effect; nearly all actives have a fitted effect of over 55% in size", "conditions": "yeast TDP-43 toxicity rescue, BacTiter-Glo growth, 24 h; series mostly up to 46.1 µM; growth rescue (activation): at the top concentration", "in_short": "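TDP-43-expressing yeast, pregrown in raffinose, seeded at OD600 0.02 in galactose medium with compound for 24 hr at 30 deg C. Growth read by BacTiter-Glo luminescence, so rescue of toxicity appears as activation.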", "values": [
      {"smiles": "CCCCC(NC(=O)COc1cc2c(c3oc(=O)cc(C)c13)CCC(C)(C)O2)C(=O)O", "note": "(stereo not given)", "growth rescue (activation)": "inactive: -26.2%"},
      {"smiles": "O=C(OCC(=O)N1CCOCC1)c1ccc(Cl)cc1[N+](=O)[O-]", "growth rescue (activation)": "inactive: 0.15%"},
      {"smiles": "C=CCn1c(-c2cccc(OCC)c2)n[nH]c1=S", "growth rescue (activation)": "inactive: 22.7%"},
      {"smiles": "Cc1nccn1CC(O)COc1ccccc1", "note": "(stereo not given)", "growth rescue (activation)": "inactive: -3.86%"},
      {"smiles": "COc1ccc(-c2cc(C(=O)N3CCN(c4ccc(F)cc4)CC3)no2)cc1OC", "growth rescue (activation)": "inactive: 11.8%"},
      {"smiles": "O=C(O)c1ccc(-c2nc3ccccc3[nH]2)cc1", "growth rescue (activation)": "inactive: -2.05%"},
      {"smiles": "O=S(=O)(c1ccccc1F)N1CCC(c2nc3ccccc3[nH]2)CC1", "growth rescue (activation)": "inactive: -1.9%"},
      {"smiles": "CN(C)S(=O)(=O)c1ccc2c(c1)C(=NO)c1cc(S(=O)(=O)N(C)C)ccc1-2", "growth rescue (activation)": "inactive: -2.63%"},
      {"smiles": "O=C(NC12CC3CC(CC(C3)C1)C2)N1CC2Cc3cccc(=O)n3C(C2)C1", "note": "(stereo not given)", "growth rescue (activation)": "inactive: 5.17%"},
      {"smiles": "CCCCS(=O)(=O)Nc1ccc(N2CCOCC2)c(S(=O)(=O)N2CCOCC2)c1", "growth rescue (activation)": "inactive: 10.6%"},
      {"smiles": "COc1ccc(NS(=O)(=O)c2cc([N+](=O)[O-])ccc2N/N=C/c2c(C)[nH]c3ccccc23)cc1", "growth rescue (activation)": "inactive: 23.3%"},
      {"smiles": "CC(C)(CN1CCN(C(c2ccccc2)c2ccccc2)CC1)NS(=O)(=O)c1ccccc1", "growth rescue (activation)": "inactive: 28.7%"},
      {"smiles": "Nc1c(N(CCO)C(=O)/C=C/c2ccco2)c(=O)[nH]c(=O)n1Cc1ccccc1", "growth rescue (activation)": "inactive: 9.79%"},
      {"smiles": "Cc1cccc(NCC(=O)N/N=C\\c2ccc[nH]2)c1", "growth rescue (activation)": "inactive: 10.5%"},
      {"smiles": "CCN1CCN(CCCOc2ccccc2-c2ccccc2)CC1", "growth rescue (activation)": "inactive: -11.5%"},
      {"smiles": "COc1ccc(OCCC(=O)N2CCCCC2)cc1", "growth rescue (activation)": "inactive: 7.03%"},
      {"smiles": "O=C(CN(Cc1ccccc1)S(=O)(=O)c1ccc(F)cc1)NCc1ccccn1", "growth rescue (activation)": "inactive: -7.03%"},
      {"smiles": "CN(CCc1ccccn1)C(=O)CCC1CCCN(C(=O)c2c3c(nn2C)CCCC3)C1", "note": "(stereo not given)", "growth rescue (activation)": "inactive: 5.49%"},
      {"smiles": "Cc1nn(CCC(=O)N2CCN(S(=O)(=O)c3ccc(Cl)cc3)CC2)c(C)c1C", "growth rescue (activation)": "inactive: 11.4%"},
      {"smiles": "CCOC(=O)CSc1n[nH]c(-c2cccnc2)n1", "growth rescue (activation)": "inactive: 12.1%"},
      {"smiles": "COc1ccc(CN2C[C@@H](CO)O[C@@H](n3cnc4c(NCCN(C)C)ncnc43)C2)cc1", "growth rescue (activation)": "inactive: -4.12%"},
      {"smiles": "CC(C)(C)c1ccc(S(=O)(=O)Nc2ccc3c(c2)COC3=O)cc1", "growth rescue (activation)": "inactive: -21.5%"},
      {"smiles": "COc1ccc(/C=C2\\CCc3ccccc3C2=O)c(OC)c1OC", "growth rescue (activation)": "inactive: 29.9%"},
      {"smiles": "O=c1cc(CN2CC(O)Cc3ccc4ccccc4c32)nc2sccn12", "note": "(stereo not given)", "growth rescue (activation)": "inactive: 4.71%"},
      {"smiles": "COc1ccc(CCNCC(O)COc2c(C)cccc2C)cc1OC", "note": "(stereo not given)", "growth rescue (activation)": "inactive: -12.7%"},
      {"smiles": "Cc1ccc(OCc2n[nH]c(=S)n2-c2ccccc2)cc1C", "growth rescue (activation)": "inactive: 12.9%"},
      {"smiles": "Cc1cc(C)nc(NC(=O)c2ccc(Cl)cc2)n1", "growth rescue (activation)": "inactive: 9.73%"},
      {"smiles": "N#Cc1ccc(C(=O)OCC(=O)N2CCCC2)cc1", "growth rescue (activation)": "inactive: -7.7%"},
      {"smiles": "O=P(CCCO)(Cc1ccccc1)Cc1ccccc1", "growth rescue (activation)": "inactive: -5.24%"},
      {"smiles": "COc1cccc(OCCOCCOc2ccc(C)cc2[N+](=O)[O-])c1", "growth rescue (activation)": "inactive: 29.1%"},
      {"smiles": "Cc1ccc(-c2nc3ncccc3o2)cc1NC(=O)c1ccccc1Br", "growth rescue (activation)": "inactive: 7.95%"},
      {"smiles": "CCCNC(=O)C1(C)CCCN(Cc2cccc(C#N)c2)C1", "note": "(stereo not given)", "growth rescue (activation)": "inactive: 6.26%"},
      {"smiles": "NS(=O)(=O)c1ccc(CNC(=O)c2ccc(C(=O)c3ccccc3)cc2)cc1", "growth rescue (activation)": "inactive: 13.5%"},
      {"smiles": "CN(c1cccc(NC(=O)c2ccc(C(C)(C)C)cc2)c1)S(C)(=O)=O", "growth rescue (activation)": "inactive: 5.55%"},
      {"smiles": "Cc1cccc(OCC(=O)NCC(=O)N/N=C/c2ccccc2)c1", "growth rescue (activation)": "inactive: 18.7%"},
      {"smiles": "CN(C)c1ccc2c3c(ccc(N(C)C)c13)COC2", "growth rescue (activation)": "inactive: 3.63%"},
      {"smiles": "COc1ccc(Cc2nnc(NC(=O)C3CC(=O)N(c4ccccc4)C3)s2)cc1OC", "note": "(stereo not given)", "growth rescue (activation)": "inactive: -10.6%"},
      {"smiles": "CCCc1nnc(SCC(=O)Nc2nnc(CC)s2)n1CC1CCCO1", "note": "(stereo not given)", "growth rescue (activation)": "inactive: 4.25%"},
      {"smiles": "CC(/C=N/NC(=O)CN1CCN(Cc2ccc(Cl)cc2)CC1)=C\\c1ccco1", "growth rescue (activation)": "inactive: 2.25%"},
      {"smiles": "CC(=O)Nc1ccc(CNc2nc(NCCN(C)C)nc3cc(-c4ccccc4)sc23)cc1", "growth rescue (activation)": "inactive: 7.96%"},
      {"smiles": "CCc1ccc(Oc2cc(Cl)nc(N)n2)cc1", "growth rescue (activation)": "inactive: 30.5%"},
      {"smiles": "CC(C)n1c(=O)[nH]c2cc(C(=O)Nc3ccccc3)ccc21", "growth rescue (activation)": "inactive: 12.2%"},
      {"smiles": "CCN1CCN(Cc2c(C)[nH]c3ccc(OC)cc3c2=O)CC1", "growth rescue (activation)": "inactive: 13.7%"},
      {"smiles": "O=C1NN(c2cccc(Br)c2)C(=O)/C1=C\\c1ccccc1", "growth rescue (activation)": "inactive: -24%"},
      {"smiles": "O=C(CCCN1C(=O)/C(=C\\c2cccs2)SC1=S)Nc1ccc(O)cc1", "growth rescue (activation)": "inactive: 9.93%"},
      {"smiles": "CC1=CC2=NC(=O)CC(C)(C(=O)N(CC(=O)NC3CCCC3)c3ccccc3F)N2C=C1", "note": "(stereo not given)", "growth rescue (activation)": "inactive: 14.6%"},
      {"smiles": "COc1ccc(OCC(=O)NCCNC(=O)c2ccncc2)cc1", "growth rescue (activation)": "inactive: -4.35%"},
      {"smiles": "Cc1cc(C)c(C)c(S(=O)(=O)N2CCNCC2)c1C", "growth rescue (activation)": "inactive: 2.1%"},
      {"smiles": "COc1cc2c(cc1OC)/C(=C/C(=O)c1cccc([N+](=O)[O-])c1)NCC2", "growth rescue (activation)": "inactive: -1.6%"},
      {"smiles": "Cc1nnc(NC(=O)CSc2nnc(CC(=O)Nc3ccccc3F)n2C)s1", "growth rescue (activation)": "inactive: 8.75%"},
      {"smiles": "O=C(NCCc1nc2ccccc2[nH]1)/C(=C/c1ccc2c(c1)OCO2)NC(=O)c1ccccc1Cl", "growth rescue (activation)": "inactive: -0.456%"},
      {"smiles": "CN1CCN(C(=O)c2ccc(Cn3cc(Cl)cn3)o2)CC1", "growth rescue (activation)": "inactive: 6.94%"},
      {"smiles": "NS(=O)(=O)c1ccc(CCNC(=S)Nc2ccc(S(N)(=O)=O)cc2)cc1", "growth rescue (activation)": "inactive: 14.5%"},
      {"smiles": "O=C(CNCCN1CCOCC1)Nc1ccccc1Sc1ccccc1", "growth rescue (activation)": "inactive: -1.32%"},
      {"smiles": "COc1ccccc1CN1C[C@@H]2C[C@@H](c3[nH]c4ccc(C)cc4c3C)N3CCC[C@@]23C1=O", "growth rescue (activation)": "inactive: 5.59%"}
    ]}
  ]
}
